SMILES strings stand for the structures. The list shows a part of the results.

From the antibiotic and cytotoxicity screens of Wong et al. (2023) come the findings set out here.

This test has as its system HSkMC (human skeletal muscle cells). The test can be described thus: cytotoxicity call (relative viability < 0.9). The settings on record: 10 µM.
Consider `COCC#Cc1ccc2c(c1)O[C@@H](CN(C)C(=O)CN(C)C)[C@@H](C)CN([C@H](C)CO)S2(=O)=O`, for which the cytotoxicity call is “inactive”.

On to `Cn1cncc1C#N`, for which the cytotoxicity call is “inactive”.

As to `C[C@@H]1CN([C@@H](C)CO)C(=O)c2cc(NC(=O)c3ccncc3)ccc2O[C@@H](C)CCCCO[C@@H]1CN(C)Cc1ccc(C(F)(F)F)cc1`, the cytotoxicity call is “inactive”.

With `CSc1ccc2cc(CN(C[C@H]3CCCO3)C(=O)c3ccco3)c(N(C)Cc3csc(C)n3)nc2c1`, the cytotoxicity call is “inactive”.

For the compound `CCS(=O)(=O)Nc1ccc2c(c1)C(=O)N(C)[C@@H]1CC[C@H](CC(=O)NCc3ccccc3F)O[C@H]1CO2`, the cytotoxicity call is “inactive”.

With `COC(=O)[C@@H](Cc1ccc(-n2cc(COc3ccccc3/C=C(C)/C=C/C(=O)NO)nn2)cc1)N1CC(/C=C/C2CC2)=C[C@H]1[C@H](O)Cc1ccccc1`, the cytotoxicity call was “inactive”.

With `Cl.NCc1ccc(S(N)(=O)=O)cc1`, the cytotoxicity call was “inactive”.

Take `CCCNC(=O)Nc1ccc2c(c1)OC[C@H](C)N(Cc1ccc(-c3ccccn3)cc1)C[C@H](C)[C@H](OC)CN(C)C2=O`: the cytotoxicity call was “inactive”.

Turning to `COc1ccc(NC(=O)N(C)C[C@@H]2OCCCC[C@H](C)Oc3ccc(NC(=O)c4ccncc4)cc3C(=O)N([C@H](C)CO)C[C@H]2C)cc1`, the cytotoxicity call is “inactive”.

Take `C[C@H]1CCCCO[C@@H](CN(C)C(=O)C2CCCCC2)[C@@H](C)CN([C@@H](C)CO)C(=O)c2cc(NC(=O)CCC(F)(F)F)ccc2O1`: the cytotoxicity call was “inactive”.

For `C[C@H](O)C#Cc1ccc2c(c1)O[C@@H](CN(C)C(=O)Cc1ccccn1)[C@H](C)CN([C@@H](C)CO)S2(=O)=O`, the cytotoxicity call was “inactive”.

In the case of `C[C@H](CO)N1C[C@H](C)[C@@H](CN(C)S(=O)(=O)c2ccc(F)cc2)OCCCC[C@H](C)Oc2ccc(NS(=O)(=O)c3cn(C)cn3)cc2C1=O`, the cytotoxicity call was “inactive”.

Take `C[C@@H]1CN([C@H](C)CO)C(=O)c2cccc(NS(=O)(=O)c3ccc(Cl)cc3)c2O[C@@H]1CN(C)Cc1ccc(Cl)c(Cl)c1`: the cytotoxicity call was “inactive”.

`COc1ccc2c3c(n(c2c1)C)[C@@H](CO)N(C[C@]13CCN(CC1)C(=O)Nc1cccc(c1)F)C(=O)C1CCCCC1`: the cytotoxicity call was “inactive”.

`C=CCC[C@@H](Cc1ccc(F)cc1)C(=O)O[C@@H](CNC(=O)[C@@H](CC=C)CC(=O)N(CCO)Cc1ccccc1)c1ccccc1`: the cytotoxicity call was “active”.

For the compound `O=C(NS(=O)(=O)c1ccccc1)C1CC1`, the cytotoxicity call is “inactive”.

`C[C@H]1CN([C@@H](C)CO)C(=O)Cc2cc(NS(=O)(=O)c3cn(C)cn3)ccc2O[C@@H]1CN(C)C(=O)NC1CCCCC1`: the cytotoxicity call was “inactive”.

Regarding `C[C@H](CO)N1C[C@H](C)[C@H](CN(C)C(=O)C2CCOCC2)Oc2ncc(C#Cc3ccccc3F)cc2C1=O`, the cytotoxicity call is “inactive”.

Consider `COc1ccc(S(=O)(=O)Nc2ccc3c(c2)C(=O)N([C@H](C)CO)C[C@H](C)[C@H](CN(C)C(=O)Nc2ccc4c(c2)OCO4)OCCCC[C@@H](C)O3)cc1`, for which the cytotoxicity call was “inactive”.

On to `CO[C@H](C(=O)N(C)C[C@@H]1OCc2ccccc2-c2c(n(C)c3ccccc23)C(=O)N([C@H](C)CO)C[C@@H]1C)c1ccccc1`, for which the cytotoxicity call is “inactive”.

For `C[C@H]1CN([C@@H](C)CO)S(=O)(=O)c2ccc(-c3ccc(F)cc3)cc2O[C@H]1CN(C)C(=O)C1CCOCC1`, the cytotoxicity call was “inactive”.

With `CN(Cc1ccccn1)C(=O)[C@@]12COC[C@@H]1CN(S(C)(=O)=O)C2`, the cytotoxicity call was “inactive”.

For `C[C@@H]1CCCCO[C@@H](CN(C)C(=O)Nc2ccc(F)cc2)[C@@H](C)CN([C@H](C)CO)C(=O)c2cc(NC(=O)c3ccncc3)ccc2O1`, the cytotoxicity call is “inactive”.

Turning to `C[C@@H]1CCCCO[C@@H](CN(C)Cc2ccc(C(=O)O)cc2)[C@H](C)CN([C@H](C)CO)C(=O)c2cc(NC(=O)C3CCCCC3)ccc2O1`, the cytotoxicity call was “inactive”.

Take `C[C@@H]1CCCCO[C@H](CN(C)Cc2ccc(Cl)c(Cl)c2)[C@H](C)CN([C@@H](C)CO)C(=O)c2cc(NC(=O)Nc3ccc(C(F)(F)F)cc3)ccc2O1`: the cytotoxicity call is “inactive”.

On to `CCOc1ccc(S(=O)(=O)[O-])c2cccnc12.[Na+]`, for which the cytotoxicity call was “inactive”.

For `Cc1noc(C)c1NC(=O)Nc1ccc2c(c1)C(=O)N([C@@H](C)CO)C[C@@H](C)[C@@H](CN(C)C(=O)Nc1cccc3ccccc13)O2`, the cytotoxicity call is “inactive”.

For the compound `COc1ccc(NC(=O)Nc2ccc3c(c2)C(=O)N([C@@H](C)CO)C[C@@H](C)[C@@H](CN(C)C(=O)CCC(F)(F)F)OCCCC[C@H](C)O3)cc1`, the cytotoxicity call was “inactive”.

Take `CO[C@@H]1CN(C)C(=O)c2cc(NS(C)(=O)=O)ccc2OC[C@H](C)N(C(=O)C2CCOCC2)C[C@@H]1C`: the cytotoxicity call was “inactive”.

Consider `C[C@H](CO)N1C[C@H](C)[C@@H](CN(C)C(=O)NC2CCCCC2)Oc2ccc(NC(=O)c3ccncc3)cc2CC1=O`, for which the cytotoxicity call is “inactive”.
